Laboratory results taken from the supplement of paper PMC10126150.
Values marked as one replicate rest on one cluster of the flow cell; about a third of the high ones do not repeat.
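Also: ATP exposure 15 min at 22 °C before imaging.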

What follows are sequences tested on ATP (assay: switch fluorescence ratio, 500 uM ATP over buffer (Cy3 cluster intensity, sum of 5 cycles each) (fold (ratio)); higher = stronger signal-on switching upon ATP binding; sequences stand for … in TCGTCGGCAGCGTCAGATGTGTATAAGAGACAGTTTTTTTTTTTTTTTTTTTTTTTTT…TC). Conditions: aptamer strand: ATP DNA aptamer (quencher-CACCTGGGGGAGTATTGCGGAGGAAGG + anchor), 100 nM annealed; ATP concentration: 500 uM; one replicate.
In short: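 Five buffer/ATP imaging cycles were run on Cy3-labelled switching-strand clusters on a modified Illumina MiSeq flow-cell, with NaOH stripping and re-annealing between cycles. In each cycle, clusters annealed to 100 nM quencher-labelled ATP aptamer were imaged in selection buffer, then after 15 min with 500 uM ATP at 22 °C. Per cluster, the fluorescence ratio is summed target-cycle over summed buffer-cycle Cy3 intensity, averaged per switch-domain sequence. Only clusters within 100-1000 RFU were kept.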
For GCGATAGTCA, the switch fluorescence ratio was 1.
GCGATATTGA showed a switch fluorescence ratio of 0.975.
Work on GCGATCACGG yielded a switch fluorescence ratio of 1.05.
For GCGATGCCGA, the switch fluorescence ratio was 0.967.
In the case of GCGATTAACT, the switch fluorescence ratio is reported as 1.05.
In the case of GCGATTAGGT, the switch fluorescence ratio is reported as 1.02.
Work on GCGATTATGT yielded a switch fluorescence ratio of 0.984.
With GCGATTGAAT the switch fluorescence ratio was 1.04.
GCGATTGTGA gave a switch fluorescence ratio of 1.05.
With GCGCAACGTA the switch fluorescence ratio was 0.992.
Sequence GCGCAACTCT has a switch fluorescence ratio of 1.18.
Sequence GCGCACAACT has a switch fluorescence ratio of 1.16.
Sequence GCGCACGCTT has a switch fluorescence ratio of 1.05.
Work on GCGCACTTTC yielded a switch fluorescence ratio of 1.2.
In the case of GCGCAGGGGC, the switch fluorescence ratio is reported as 1.23.
Sequence GCGCATGAAC has a switch fluorescence ratio of 2.32.
GCGCCAGATA showed a switch fluorescence ratio of 1.01.
In the case of GCGCCATCAG, the switch fluorescence ratio is reported as 0.994.
GCGCCCGTAA showed a switch fluorescence ratio of 1.17.
GCGCCCGTGT gave a switch fluorescence ratio of 1.02.
In the case of GCGCCCTATA, the switch fluorescence ratio is reported as 0.989.
GCGCCGCGGA showed a switch fluorescence ratio of 1.29.
With GCGCCTCCGT the switch fluorescence ratio was 2.5.
GCGCGAATAT showed a switch fluorescence ratio of 1.16.
GCGCGAATTG showed a switch fluorescence ratio of 0.959.
GCGCGACTCG gave a switch fluorescence ratio of 1.05.
Work on GCGCGCGGGT yielded a switch fluorescence ratio of 0.997.
GCGCGCTGGC was tested, and the switch fluorescence ratio was 1.02.
Sequence GCGCGGATTC has a switch fluorescence ratio of 1.18.
For GCGCGTAGGT, the switch fluorescence ratio was 1.05.
With GCGCTAACTT the switch fluorescence ratio was 1.03.
Work on GCGCTAAGTG yielded a switch fluorescence ratio of 0.992.
GCGCTACATA gave a switch fluorescence ratio of 1.04.
GCGCTACGGT gave a switch fluorescence ratio of 1.1.
In the case of GCGCTATGTA, the switch fluorescence ratio is reported as 1.01.
Work on GCGCTCTAGT yielded a switch fluorescence ratio of 0.982.
In the case of GCGCTGTGAC, the switch fluorescence ratio is reported as 1.25.
In the case of GCGCTGTTCA, the switch fluorescence ratio is reported as 1.07.
For GCGGAAAGTG, the switch fluorescence ratio was 0.934.
GCGGAATCGT gave a switch fluorescence ratio of 1.04.
In the case of GCGGACGTTA, the switch fluorescence ratio is reported as 1.04.
For GCGGACGTTG, the switch fluorescence ratio was 0.996.
In the case of GCGGAGGCTT, the switch fluorescence ratio is reported as 1.
GCGGATGCCA was tested, and the switch fluorescence ratio was 1.01.
In the case of GCGGATTATG, the switch fluorescence ratio is reported as 1.04.
GCGGCCCGAA gave a switch fluorescence ratio of 1.02.
GCGGCCGCTG showed a switch fluorescence ratio of 1.01.
For GCGGCCTGT, the switch fluorescence ratio was 1.
GCGGCGGTCT showed a switch fluorescence ratio of 1.11.
GCGGCGTGGA showed a switch fluorescence ratio of 1.01.
GCGGGCTTTG was tested, and the switch fluorescence ratio was 0.951.
With GCGGGTAGGC the switch fluorescence ratio was 0.983.
For GCGGGTGAGA, the switch fluorescence ratio was 1.07.
GCGGGTGCT gave a switch fluorescence ratio of 0.99.
Sequence GCGGGTTACG has a switch fluorescence ratio of 1.
Sequence GCGGGTTCAC has a switch fluorescence ratio of 1.03.
GCGGGTTGCA gave a switch fluorescence ratio of 1.04.
For GCGGGTTGT, the switch fluorescence ratio was 1.06.
GCGGTAACAC was tested, and the switch fluorescence ratio was 1.
In the case of GCGGTAGACC, the switch fluorescence ratio is reported as 1.02.
Work on GCGGTATCTA yielded a switch fluorescence ratio of 1.
Sequence GCGGTGATGT has a switch fluorescence ratio of 0.994.
For GCGGTGCGAA, the switch fluorescence ratio was 1.02.
Work on GCGGTGTCTG yielded a switch fluorescence ratio of 0.969.
GCGGTGTGAC showed a switch fluorescence ratio of 0.994.
GCGGTTCCGA gave a switch fluorescence ratio of 0.979.
GCGTACGTCA showed a switch fluorescence ratio of 1.03.
For GCGTCATTGC, the switch fluorescence ratio was 1.16.
GCGTCATTGG showed a switch fluorescence ratio of 1.04.
GCGTCCACTG gave a switch fluorescence ratio of 0.962.
For GCGTCCGGGG, the switch fluorescence ratio was 1.06.
For GCGTCCTCTT, the switch fluorescence ratio was 0.97.
GCGTCGGATG was tested, and the switch fluorescence ratio was 0.988.
Work on GCGTCGTTGT yielded a switch fluorescence ratio of 1.
GCGTCTATAT showed a switch fluorescence ratio of 1.03.
Sequence GCGTCTATGG has a switch fluorescence ratio of 1.01.
With GCGTCTGGGT the switch fluorescence ratio was 1.01.
GCGTGAATGT gave a switch fluorescence ratio of 1.07.
In the case of GCGTGACTTG, the switch fluorescence ratio is reported as 0.992.
GCGTGATAGC showed a switch fluorescence ratio of 1.01.
GCGTGATCCG was tested, and the switch fluorescence ratio was 0.92.
With GCGTGCTCTT the switch fluorescence ratio was 0.978.
GCGTGGAGTG showed a switch fluorescence ratio of 1.04.
In the case of GCGTGGCAG, the switch fluorescence ratio is reported as 1.05.
GCGTGGCGTC showed a switch fluorescence ratio of 0.987.
For GCGTGGTTTT, the switch fluorescence ratio was 0.963.
For GCGTGTCTG, the switch fluorescence ratio was 1.
In the case of GCGTTACCTG, the switch fluorescence ratio is reported as 1.01.
Sequence GCGTTATTCT has a switch fluorescence ratio of 1.01.
With GCGTTCATTT the switch fluorescence ratio was 1.01.
GCGTTCCTAT gave a switch fluorescence ratio of 0.99.
Work on GCGTTGCTAT yielded a switch fluorescence ratio of 0.967.
GCGTTGGCAT was tested, and the switch fluorescence ratio was 0.987.
In the case of GCGTTGTTGA, the switch fluorescence ratio is reported as 0.987.
GCGTTTATCA was tested, and the switch fluorescence ratio was 1.05.
GCGTTTGCG was tested, and the switch fluorescence ratio was 0.987.
GCGTTTGCGA was tested, and the switch fluorescence ratio was 1.02.
GCGTTTTCGC gave a switch fluorescence ratio of 0.99.
With GCTAATCTGG the switch fluorescence ratio was 1.03.
In the case of GCTAATTCTG, the switch fluorescence ratio is reported as 1.
